Data from patent US20250270341A1 (Alector, published 2025).

T1: Full length human CD98hc on CHO cells (human)
T1 construct: CHO cells stably overexpressing it; also called CHO-human CD98hc; CHO-huCD98hc
T1 chain: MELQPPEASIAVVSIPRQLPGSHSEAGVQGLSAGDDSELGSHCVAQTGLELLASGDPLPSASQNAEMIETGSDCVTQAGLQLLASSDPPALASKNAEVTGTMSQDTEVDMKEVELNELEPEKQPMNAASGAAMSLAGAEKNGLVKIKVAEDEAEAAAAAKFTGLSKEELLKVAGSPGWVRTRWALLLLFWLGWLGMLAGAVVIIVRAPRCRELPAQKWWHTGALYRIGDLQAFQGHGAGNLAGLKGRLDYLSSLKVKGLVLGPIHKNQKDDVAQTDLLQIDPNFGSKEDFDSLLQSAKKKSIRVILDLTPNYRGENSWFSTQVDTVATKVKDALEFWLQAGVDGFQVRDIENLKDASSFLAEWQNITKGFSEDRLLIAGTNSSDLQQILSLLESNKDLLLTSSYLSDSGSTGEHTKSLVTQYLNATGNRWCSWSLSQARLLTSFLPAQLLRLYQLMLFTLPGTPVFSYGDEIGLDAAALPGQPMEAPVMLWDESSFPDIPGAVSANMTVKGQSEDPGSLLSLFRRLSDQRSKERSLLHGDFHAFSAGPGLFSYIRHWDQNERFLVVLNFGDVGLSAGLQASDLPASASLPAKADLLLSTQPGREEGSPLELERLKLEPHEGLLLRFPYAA

T2: human CD98hc endogenously expressed on HCMEC/D3 cells (human)
T2 construct: human brain endothelial cell line
T2 chain: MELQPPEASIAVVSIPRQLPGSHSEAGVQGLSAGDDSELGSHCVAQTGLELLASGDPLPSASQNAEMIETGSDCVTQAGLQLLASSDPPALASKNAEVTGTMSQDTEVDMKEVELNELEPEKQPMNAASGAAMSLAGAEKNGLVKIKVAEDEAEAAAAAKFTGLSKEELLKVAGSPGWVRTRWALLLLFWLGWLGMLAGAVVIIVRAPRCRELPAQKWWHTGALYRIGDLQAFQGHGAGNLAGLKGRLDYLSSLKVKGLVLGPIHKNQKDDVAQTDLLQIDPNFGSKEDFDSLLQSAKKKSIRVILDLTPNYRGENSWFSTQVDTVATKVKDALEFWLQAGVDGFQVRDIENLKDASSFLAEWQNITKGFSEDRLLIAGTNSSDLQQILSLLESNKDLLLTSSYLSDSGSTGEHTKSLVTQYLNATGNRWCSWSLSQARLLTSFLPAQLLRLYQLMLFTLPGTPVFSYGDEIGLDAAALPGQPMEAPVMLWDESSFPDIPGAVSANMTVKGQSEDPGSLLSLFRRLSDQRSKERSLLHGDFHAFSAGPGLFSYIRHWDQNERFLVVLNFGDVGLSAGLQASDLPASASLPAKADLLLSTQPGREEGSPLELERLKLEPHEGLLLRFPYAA

T3: huCD98hc ECD Avi-His (human, UniProt P08195 105-529)
T3 construct: biotinylated on the Avi tag where captured on streptavidin; also called Human CD98-AVI-His; Human CD98hc-AVI-His
T3 sequence: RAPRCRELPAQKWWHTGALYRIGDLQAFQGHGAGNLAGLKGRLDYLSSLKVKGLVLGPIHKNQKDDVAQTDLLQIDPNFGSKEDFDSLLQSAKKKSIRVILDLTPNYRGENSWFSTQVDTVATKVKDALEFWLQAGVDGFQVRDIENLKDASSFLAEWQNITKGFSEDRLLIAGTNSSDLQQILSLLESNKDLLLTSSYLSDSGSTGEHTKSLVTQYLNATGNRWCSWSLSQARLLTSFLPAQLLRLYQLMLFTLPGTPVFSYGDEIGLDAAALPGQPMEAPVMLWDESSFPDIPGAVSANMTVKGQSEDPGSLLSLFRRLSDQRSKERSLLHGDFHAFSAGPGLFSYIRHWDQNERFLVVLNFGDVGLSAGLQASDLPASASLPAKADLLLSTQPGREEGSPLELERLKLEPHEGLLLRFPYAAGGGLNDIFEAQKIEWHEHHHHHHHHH

T4: Cyno CD98hc ECD Avi-His (cynomolgus macaque, UniProt P08195 105-529 (human entry))
T4 construct: biotinylated on the Avi tag where captured on streptavidin; also called Cyno CD98-AVI-His; Cyno CD98hc-AVI-His
T4 chain: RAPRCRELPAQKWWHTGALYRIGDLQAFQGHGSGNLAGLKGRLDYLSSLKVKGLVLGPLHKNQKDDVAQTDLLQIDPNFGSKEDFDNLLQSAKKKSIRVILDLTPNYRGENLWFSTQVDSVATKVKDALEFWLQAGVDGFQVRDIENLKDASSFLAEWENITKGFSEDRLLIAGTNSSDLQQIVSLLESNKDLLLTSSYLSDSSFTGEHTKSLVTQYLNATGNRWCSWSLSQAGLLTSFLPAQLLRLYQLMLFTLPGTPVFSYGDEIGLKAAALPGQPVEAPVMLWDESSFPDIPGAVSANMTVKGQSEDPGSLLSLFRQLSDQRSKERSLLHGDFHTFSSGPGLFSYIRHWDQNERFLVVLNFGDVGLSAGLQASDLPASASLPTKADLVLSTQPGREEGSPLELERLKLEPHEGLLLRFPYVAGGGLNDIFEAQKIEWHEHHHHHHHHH


How the values were obtained:
[1] = target: T1, Full length human CD98hc on CHO cells; assay: FACS
Description: (§1) Purified 2+1 anti-CD98hc bispecific antibodies were screened for binding to human and cyno CD98hc by ELISA as in Example 6. Purified 2+1 bispecific antibodies were screened at concentrations ranging from 1-30 μg/mL. ELISA binding to human and cyno CD98 and control cyno TfR AVI-His tagged proteins as a ratio to secondary antibody alone were calculated, and values are listed in Table 10A. Purified 2+1 bispecific antibodies were also screened for their ability to bind CHO cells overexpressing human or mouse CD98hc or cells endogenously expressing human CD98hc by FACS. […] Data was acquired on a FACS Canto (BD Biosciences). The ratio of binding to endogenously expressing human brain endothelial cells over secondary only is also in Table 12B. 47 out of 94 of the 2+1 anti-CD98hc bispecific antibodies screened were positive by ELISA with signal at least 5-fold higher than the secondary alone, and 16 were ELISA and FACS positive which FACS binding increased 3-fold or more compared to non-expressing cells.

[2] = target: T2, human CD98hc endogenously expressed on …; assay: FACS
Description: as §1

[3] = target: T5, cyno TfR AVI-His (cyno, UniProt H9EXL1 89-760 (rhesus entry)); assay: ELISA, 1-30 ug/mL
T5 construct: control protein
Description: (§2) Blocking buffer was removed and human, cyno, or mouse Avi-His-tagged CD98hc and Avi-His-tagged human TfR polypeptides were added at 1 μg/ml in ELISA diluent and captured for 1 hour at room temperature. After washing three times with 300 μl of PBST (PBS+0.05% Tween20, Thermo 28352), the hybridoma cell culture supernatants or 1 μg/ml of commercially available purified mouse anti-human CD98hc monoclonal antibody (Sigma Aldrich, Cat #SAB 4700503) and rat anti-mouse CD98hc antibody (Bio-Rad Laboratories, Hercules, CA, Cat #MCA2684) were added (50 μl/well) to each well. After 30 minutes of incubation at room temperature, the plates were washed three times with 300 μl of PBST. […] After a final set of washes (3×300 μl in PBST), 50 μl/well of BioFx TMB substrate (Surmodics, Eden Praire, MN, Cat #TMBW-1000-01) was added to the wells. The reaction was then quenched after 5-10 mins with 50 μl/well of 2N sulfuric acid. The plates were read for absorbance at 450 nm on a SpectraMax M5 (Molecular Devices, Sunnyvale, CA) using SoftMax Pro software.
(§3) Purified 2+1 anti-CD98hc bispecific antibodies were screened for binding to human and cyno CD98hc by ELISA as in Example 6. Purified 2+1 bispecific antibodies were screened at concentrations ranging from 1-30 μg/mL. ELISA binding to human and cyno CD98 and control cyno TfR AVI-His tagged proteins as a ratio to secondary antibody alone were calculated, and values are listed in Table 10A. Purified 2+1 bispecific antibodies were also screened for their ability to bind CHO cells overexpressing human or mouse CD98hc or cells endogenously expressing human CD98hc by FACS. […] Data was acquired on a FACS Canto (BD Biosciences).

[4] = target: T3, huCD98hc ECD Avi-His; assay: ELISA, 1-30 ug/mL
Description: as §2, §3

[5] = target: T4, Cyno CD98hc ECD Avi-His; assay: ELISA, 1-30 ug/mL
Description: as §2, §3

[6] = target: T4, Cyno CD98hc ECD Avi-His; assay: SPR, Carterra LSA, antibody immobilized
Description: Binding kinetics of 2+1 anti-CD98hc bispecific antibodies (from the hybridoma campaigns) to human and cyno CD98hc Avi-His were evaluated using a Carterra LSA instrument (Carterra, Salt Lake City, UT). The 2+1 anti-CD98hc bispecific antibodies were prepared in duplicates by diluting 50-fold into 10 mM Acetate, pH 5.0 (Carterra) to give final concentration of 20 μg/mL. An HC200M sensor chip (Carterra) was activated using the single channel flow cell with a 7-minute injection of a 1:1:1 mixture of 100 mM MES pH 5.5, 100 mM sulfo-NHS, 400 mM EDC (all reconstituted in MES pH 5.5; 100 μl of each mixed in vial immediately before running assay). After switching to the multi-channel array flow cell, the antibodies were injected over the activated chip in four 96-spot arrays for 15 minutes each. The remaining unconjugated active groups on the chip were then blocked by injecting 1M Ethanolamine pH 8.5 (Carterra) for 7 minutes using the single channel flow cell. The resulting sensor chip contained eight spots for each antibody, at four different densities. Two independent experiments were performed as follows, resulting in an N of between one and eight determinations for each antibody. Spots that yielded less than 20 RU of analyte binding were excluded from further analysis.
After priming with running buffer HBS-EP+ (Teknova) with 0.5 mg/ml BSA (MP Biomedicals), the immobilized 2+1 anti-CD98hc bispecific antibodies were tested for their ability to bind to several forms of CD98hc Avi-His, including human and cyno orthologs described above. Estimates of affinity were generated by injecting each analyte over the entire antibody array using the single channel flow cell. CD98hc Avi-His analytes were diluted with running buffer, in a series of six, three-fold serial dilutions starting from 600 nM for human and cyno CD98hc Avi-His. Analytes were injected for 5 minutes, and dissociation was followed for 10 minutes. After each analyte injection, antibodies were regenerated with Pierce IgG Elution Buffer (ThermoScientific). Data were processed and analyzed using NextGenKIT high-throughput kinetics analysis software (Carterra).
The equilibrium dissociation constants (KD) were calculated from the fitted association and dissociation rate constants (k-on and k-off) for 2+1 anti-CD98hc bispecific antibodies of the present disclosure.

Row | MFI ratio CHO huCD98/CHO parental [1] | MFI ratio HCMEC/2nd ab only [2] | ELISA ratio to 2nd only [3] | ELISA ratio to 2nd only [4] | ELISA ratio to 2nd only [5] | binding result [6] | Binder
1 | 9 | 98 | 1 | 25 |  |  | CD98hc.05.046 (2+1 bispecific antibody) (bispecific antibody) heavy 1: EVRLLESGGGLVQPGGSLRLSCAASGFTFSNYAMGWVRQAPGKGLEWVSAISGSGGSTYYADSVKGRFTTSRDDSKNALYLQMNSLRAEDTAVYYCARGGPGWYAADVWGQGTTVTVSSASTKGPSVFPLAPSSKSTSGGTAALGCLVKDYFPEPVTVSWNSGALTSGVHTFPAVLQSSGLYSLSSVVTVPSSSLGTQTYICNVNHKPSNTKVDKKV[here human IgG1 Fc with changes without letters]GGGGSGGGGSGGGGSEVQLVESGGGLVKPGGSLKLSCAASGFTFSDYYMYWVRQTPEKRLEWVATISDGGSYTYYPDSVKGRFTISRDNAKNNLYLQMSSLKSEDTAMYYCARDRAYYYGSSYGFGYWGQGTLVTVSSGGSEGKSSGSGSESKSTGGSDVVMTQTPLSLPVSLGNQASISCRSSQSLVHSNGNTFFHWYLQKPGQSPKLLIYKVSNRFSGVPDRFSGSGSGTDFTLKISRVEAEDLGLYFCSQTTHVPPTFGGGTKLEIK heavy 2: EVRLLESGGGLVQPGGSLRLSCAASGFTFSNYAMGWVRQAPGKGLEWVSAISGSGGSTYYADSVKGRFTTSRDDSKNALYLQMNSLRAEDTAVYYCARGGPGWYAADVWGQGTTVTVSS[here human IgG1 constant region with changes without letters] light: DIQMTQSPSSLSASVGDRVTITCRASQSISSYLNWYQQKPGKAPKLLIYAASSLQSGVPSRFSGSGSGTDFTLTISSLQPEDFATYYCQQADLPAFAFGGGTKVEIKRTVAAPSVFIFPPSDEQLKSGTASVVCLLNNFYPREAKVQWKVDNALQSGNSQESVTEQDSKDSTYSLSSTLTLSKADYEKHKVYACEVTHQGLSSPVTKSFNRGEC
2 | 6 | 80 | 1 |  | 1 | no binding (tested: 600 nM) | CD98hc.05.153 (2+1 bispecific antibody) (bispecific antibody) heavy 1: EVRLLESGGGLVQPGGSLRLSCAASGFTFSNYAMGWVRQAPGKGLEWVSAISGSGGSTYYADSVKGRFTTSRDDSKNALYLQMNSLRAEDTAVYYCARGGPGWYAADVWGQGTTVTVSSASTKGPSVFPLAPSSKSTSGGTAALGCLVKDYFPEPVTVSWNSGALTSGVHTFPAVLQSSGLYSLSSVVTVPSSSLGTQTYICNVNHKPSNTKVDKKV[here human IgG1 Fc with changes without letters]GGGGSGGGGSGGGGSEVQLVESGGGLVKPGGSLKLSCAASGFDFSNCDMSWVRQTPEKRLEWVAYISNSGDSTYFPHTVKGRFTISRDNAKNALYLQMSSLKSEDTAMYYCARQGGHYPWFVYWGQGTLVTVSSGGSEGKSSGSGSESKSTGGSDIVMSQSPSFLDVSVGEKVAMTCKSIQSLLYSGNQKNYLAWYQQKPGQSPKVLIYWASTRESGVPDRFTGSGSGTDFTLTISSVKAEDLAVYYCQQYYTYPPTFGGGTKLEIK heavy 2: EVRLLESGGGLVQPGGSLRLSCAASGFTFSNYAMGWVRQAPGKGLEWVSAISGSGGSTYYADSVKGRFTTSRDDSKNALYLQMNSLRAEDTAVYYCARGGPGWYAADVWGQGTTVTVSS[here human IgG1 constant region with changes without letters] light: DIQMTQSPSSLSASVGDRVTITCRASQSISSYLNWYQQKPGKAPKLLIYAASSLQSGVPSRFSGSGSGTDFTLTISSLQPEDFATYYCQQADLPAFAFGGGTKVEIKRTVAAPSVFIFPPSDEQLKSGTASVVCLLNNFYPREAKVQWKVDNALQSGNSQESVTEQDSKDSTYSLSSTLTLSKADYEKHKVYACEVTHQGLSSPVTKSFNRGEC
